# Reference: the supplement of paper PMC8728848
# This is one part of the list.
# Key:
# Test in all cases: glycan array binding signal (z-score within array); higher = stronger binding
# Details in all cases: glycan notation: IUPAC condensed, linker removed; mutation: W10H
# [1] = molecular target: GalNAc(b1-4)GlcNAc
# Summary of the method: (§1)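 Arrays were curated from the Consortium for Functional Glycomics database, 3228 in total, and kept only where the protein sequence was available. Binding is expressed as a within-array Z-score. This score was averaged across arrays of the same protein sequence at different concentrations or buffers and across linkers, and negative values can be read as non-binding.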
# [2] = molecular target: GalNAc(b1-4)GlcNAc(b1-2)Man
# Summary of the method: as §1
# [3] = molecular target: GalNAc(b1-4)GlcNAc(b1-2)Man(a1-3)[GalNAc(b1-4)GlcNAc(b1-2)Man(a1-6)]Man(b1-4)GlcNAc(b1-4)GlcNAc
# Summary of the method: as §1
# [4] = molecular target: GalNAc(b1-4)GlcNAc(b1-3)GalNAc(b1-4)GlcNAc
# Summary of the method: as §1
# [5] = molecular target: GalNAc(b1-4)GlcNAc6S
# Summary of the method: as §1
# [6] = molecular target: GalNAc(b1-6)GalNAc
# Summary of the method: as §1
# [7] = molecular target: GalNAc3S(b1-4)GlcNAc
# Summary of the method: as §1
# [8] = molecular target: GalNAc3S(b1-4)GlcNAc3S
# Summary of the method: as §1
# [9] = molecular target: GalNAc3S(b1-4)[Fuc(a1-3)]GlcNAc
# Summary of the method: as §1
# [10] = molecular target: GalNAc4S6S(b1-4)GlcNAc
# Summary of the method: as §1
# [11] = molecular target: GalNAc6S(b1-4)GlcNAc
# Summary of the method: as §1
# [12] = molecular target: Glc(a1-4)Glc
# Summary of the method: as §1
# [13] = molecular target: Glc(a1-4)Glc(a1-4)Glc(a1-4)Glc
# Summary of the method: as §1
# [14] = molecular target: Glc(a1-6)Glc(a1-6)Glc
# Summary of the method: as §1
# [15] = molecular target: Glc(a1-6)Glc(a1-6)Glc(a1-6)Glc
# Summary of the method: as §1
# [16] = molecular target: Glc(b1-4)Glc
# Summary of the method: as §1
# [17] = molecular target: Glc(b1-6)Glc
# Summary of the method: as §1
# [18] = molecular target: GlcA(b1-3)Gal
# Summary of the method: as §1
# [19] = molecular target: GlcA(b1-3)GlcNAc
# Summary of the method: as §1
# [20] = molecular target: GlcA(b1-6)Gal
# Summary of the method: as §1
# [21] = molecular target: GlcA3S(b1-3)Gal(b1-4)GlcNAc(b1-2)Man
# Summary of the method: as §1
# [22] = molecular target: GlcA3S(b1-3)Gal(b1-4)GlcNAc(b1-3)Gal(b1-4)Glc
# Summary of the method: as §1
# [23] = molecular target: GlcNAc(a1-3)Gal(b1-4)GlcNAc
# Summary of the method: as §1
# [24] = molecular target: GlcNAc(a1-4)Gal(b1-3)GlcNAc
# Summary of the method: as §1
# [25] = molecular target: GlcNAc(a1-4)Gal(b1-4)GalNAc
# Summary of the method: as §1
# [26] = molecular target: GlcNAc(a1-4)Gal(b1-4)GlcNAc
# Summary of the method: as §1
# [27] = molecular target: GlcNAc(a1-4)Gal(b1-4)GlcNAc(b1-3)Gal(b1-4)Glc
# Summary of the method: as §1
# [28] = molecular target: GlcNAc(a1-4)Gal(b1-4)GlcNAc(b1-3)Gal(b1-4)GlcNAc
# Summary of the method: as §1
# [29] = molecular target: GlcNAc(a1-4)Gal(b1-4)GlcNAc(b1-3)Gal(b1-4)GlcNAc(b1-3)Gal(b1-4)GlcNAc
# Summary of the method: as §1
# [30] = molecular target: GlcNAc(a1-4)Gal(b1-4)GlcNAc(b1-3)Gal(b1-4)[Fuc(a1-3)]GlcNAc(b1-3)Gal(b1-4)[Fuc(a1-3)]GlcNAc
# Summary of the method: as §1
# [31] = molecular target: GlcNAc(a1-6)Gal(b1-4)GlcNAc
# Summary of the method: as §1
# [32] = molecular target: GlcNAc(b1-2)Gal(b1-3)GalNAc
# Summary of the method: as §1
# [33] = molecular target: GlcNAc(b1-2)Man(a1-3)[GlcNAc(b1-2)Man(a1-6)]Man(b1-4)GlcNAc(b1-4)GlcNAc
# Summary of the method: as §1
# [34] = molecular target: GlcNAc(b1-2)Man(a1-3)[GlcNAc(b1-2)Man(a1-6)]Man(b1-4)GlcNAc(b1-4)[Fuc(a1-6)]GlcNAc
# Summary of the method: as §1
# [35] = molecular target: GlcNAc(b1-2)Man(a1-3)[GlcNAc(b1-4)][GlcNAc(b1-2)Man(a1-6)]Man(b1-4)GlcNAc(b1-4)GlcNAc
# Summary of the method: as §1
# [36] = molecular target: GlcNAc(b1-2)Man(a1-3)[GlcNAc(b1-4)][GlcNAc(b1-2)Man(a1-6)]Man(b1-4)GlcNAc(b1-4)[Fuc(a1-6)]GlcNAc
# Summary of the method: as §1
# [37] = molecular target: GlcNAc(b1-2)[GlcNAc(b1-4)]Man(a1-3)[GlcNAc(b1-2)Man(a1-6)]Man(b1-4)GlcNAc(b1-4)GlcNAc
# Summary of the method: as §1
# [38] = molecular target: GlcNAc(b1-2)[GlcNAc(b1-4)]Man(a1-3)[GlcNAc(b1-4)][GlcNAc(b1-2)Man(a1-6)]Man(b1-4)GlcNAc(b1-4)GlcNAc
# Summary of the method: as §1
# [39] = molecular target: GlcNAc(b1-2)[GlcNAc(b1-4)]Man(a1-3)[GlcNAc(b1-4)][GlcNAc(b1-2)[GlcNAc(b1-6)]Man(a1-6)]Man(b1-4)GlcNAc(b1-4)GlcNAc
# Summary of the method: as §1
# [40] = molecular target: GlcNAc(b1-2)[GlcNAc(b1-4)]Man(a1-3)[GlcNAc(b1-4)][GlcNAc(b1-2)[GlcNAc(b1-6)]Man(a1-6)]Man(b1-4)GlcNAc(b1-4)[Fuc(a1-6)]GlcNAc
# Summary of the method: as §1
# [41] = molecular target: GlcNAc(b1-2)[GlcNAc(b1-6)]Man(a1-6)[GlcNAc(b1-2)Man(a1-3)]Man(b1-4)GlcNAc(b1-4)GlcNAc
# Summary of the method: as §1
# [42] = molecular target: GlcNAc(b1-2)[GlcNAc(b1-6)]Man(a1-6)[GlcNAc(b1-2)Man(a1-3)]Man(b1-4)GlcNAc(b1-4)[Fuc(a1-6)]GlcNAc
# Summary of the method: as §1
# [43] = molecular target: GlcNAc(b1-2)[GlcNAc(b1-6)]Man(a1-6)[GlcNAc(b1-4)][GlcNAc(b1-2)Man(a1-3)]Man(b1-4)GlcNAc(b1-4)GlcNAc
# Summary of the method: as §1
# [44] = molecular target: GlcNAc(b1-3)Fuc
# Summary of the method: as §1
# [45] = molecular target: GlcNAc(b1-3)Gal
# Summary of the method: as §1
binder,measurement,setting,value
Banana lectin (Musa acuminata) (protein) MNGAIKVGAHGGNGGSAFDMGPAYRIISVKIFSGDVVDGVDVTFTYYGKTETRHYGGSGGTPHEIVLQEGEYLVGMAGEVANYHGAVVLGKLGFSTNKKAYGPFGNTGGTPFSLPIAAGKISGFFGRGGKFLDAIGVYLEPLEHHHHHH,glycan array binding signal (z-score),[1],-0.182
same,glycan array binding signal (z-score),[2],-0.17
same,glycan array binding signal (z-score),[3],-0.17
same,glycan array binding signal (z-score),[4],-0.131
same,glycan array binding signal (z-score),[5],-0.166
same,glycan array binding signal (z-score),[6],-0.176
same,glycan array binding signal (z-score),[7],-0.166
same,glycan array binding signal (z-score),[8],-0.165
same,glycan array binding signal (z-score),[9],-0.178
same,glycan array binding signal (z-score),[10],-0.127
same,glycan array binding signal (z-score),[11],-0.186
same,glycan array binding signal (z-score),[12],-0.167
same,glycan array binding signal (z-score),[13],-0.153
same,glycan array binding signal (z-score),[14],-0.096
same,glycan array binding signal (z-score),[15],-0.15
same,glycan array binding signal (z-score),[16],-0.183
same,glycan array binding signal (z-score),[17],-0.191
same,glycan array binding signal (z-score),[18],-0.16
same,glycan array binding signal (z-score),[19],-0.185
same,glycan array binding signal (z-score),[20],-0.185
same,glycan array binding signal (z-score),[21],-0.173
same,glycan array binding signal (z-score),[22],-0.164
same,glycan array binding signal (z-score),[23],0.751
same,glycan array binding signal (z-score),[24],0.088
same,glycan array binding signal (z-score),[25],-0.155
same,glycan array binding signal (z-score),[26],0.004
same,glycan array binding signal (z-score),[27],-0.141
same,glycan array binding signal (z-score),[28],0.135
same,glycan array binding signal (z-score),[29],0.146
same,glycan array binding signal (z-score),[30],-0.081
same,glycan array binding signal (z-score),[31],-0.135
same,glycan array binding signal (z-score),[32],-0.178
same,glycan array binding signal (z-score),[33],0.116
same,glycan array binding signal (z-score),[34],-0.148
same,glycan array binding signal (z-score),[35],-0.166
same,glycan array binding signal (z-score),[36],-0.179
same,glycan array binding signal (z-score),[37],-0.142
same,glycan array binding signal (z-score),[38],-0.131
same,glycan array binding signal (z-score),[39],-0.16
same,glycan array binding signal (z-score),[40],-0.167
same,glycan array binding signal (z-score),[41],-0.181
same,glycan array binding signal (z-score),[42],-0.153
same,glycan array binding signal (z-score),[43],-0.185
same,glycan array binding signal (z-score),[44],-0.161
same,glycan array binding signal (z-score),[45],-0.197
